{"source": "ChEMBL document CHEMBL4888484", "about": "“Replenishing the malaria drug discovery pipeline: Screening and hit evaluation of the MMV Hit Generation Library 1 (HGL1) against asexual blood stage Plasmodium falciparum ,using a nano luciferase reporter read-out” (2022)", "note": "Screen size: about 150,000 compounds; about 540 (0.36%) showed an effect of 50% or more. The list shows a part of the results.", "data": [{"system": "Plasmodium falciparum", "assay": "Primary screen in NF54 nanoGlo assay, in single point, at 2uM, 72h; a lower Z score goes with more inhibition", "type": "functional, Erythrocyte", "conditions": "timepoint 72 hour", "units": {"% Inhibition": "%"}, "values": [{"smiles": "CC[C@@H](CNC(=O)c1cc2cccc(Cl)c2n1C)N1CCOCC1", "% Inhibition": -3, "Z score": 0.52}, {"smiles": "O=C(c1ccoc1)N1CCn2nccc2C1", "% Inhibition": -12, "Z score": 1.88}, {"smiles": "COC(C)(C)CCNC(=O)c1cccc2c1CCC2=O", "% Inhibition": 9, "Z score": -1.67}, {"smiles": "CCc1ccc(C(=O)N2CCN(C(=O)c3cccc(OC)c3)CC2)[nH]1", "% Inhibition": -13, "Z score": 1.87}, {"smiles": "CC(=O)N1CC(C(=O)NCCc2ccccn2)CCC1c1ccc(F)c(C)c1", "note": "(centres undefined)", "% Inhibition": 3, "Z score": -0.31}, {"smiles": "Cn1ncnc1CNC1(c2cc(C(F)(F)F)ccc2Cl)CC1", "% Inhibition": 6, "Z score": -1.16}, {"smiles": "O=S(=O)(Nc1ccccc1-c1cn2c(n1)CCCC2)c1ccc(-n2cccn2)cc1", "% Inhibition": -4, "Z score": 0.46}, {"smiles": "CCCNC(=O)[C@H](C)NC(=O)Nc1ccc(F)cc1C", "% Inhibition": -11, "Z score": 2.07}, {"smiles": "COc1cccnc1CNC(=O)[C@@H]1CCCc2[nH]ncc21", "% Inhibition": -4, "Z score": 0.46}, {"smiles": "Cc1ccc(N2C(=O)c3[nH]nc(-c4ccc(Br)cc4)c3[C@@H]2c2ccco2)cc1", "% Inhibition": -12, "Z score": 1.8}, {"smiles": "CCCc1nc(N[C@H](c2nccn2C)C(C)C)c2cnn(C)c2n1", "% Inhibition": 2, "Z score": -0.41}, {"smiles": "COc1ccc(C(=O)N2CCC3(CC2)[C@@H](OC)CN3c2ccc(C)cc2)cn1", "% Inhibition": -2, "Z score": 0.35}, {"smiles": "Cc1[nH]c2nc(C(=O)N3CCC(C)CC3)nn2c(=O)c1Cc1ccccc1", "% Inhibition": -16, "Z score": 1.84}, {"smiles": "COc1ccc(-c2nn(-c3ccccc3)cc2CC(=O)N2CC[C@H](N)C2)cc1", "% Inhibition": 35, "Z score": -3.52}, {"smiles": "C#Cc1cccc(NC(=O)N[C@@H](C)CO)c1", "% Inhibition": 4, "Z score": -0.37}, {"smiles": "CCCN1CC2(CCN(Cc3ccc(C)cc3F)CC2)C[C@H]1C(=O)O", "% Inhibition": -8, "Z score": 0.91}, {"smiles": "CCc1ccsc1C(=O)N(CCOC)[C@@H](C)C(N)=O", "% Inhibition": -2, "Z score": 0.28}, {"smiles": "CC(O)CN(C)c1cc(N(C)CC(C)O)nc(-c2ccccc2)n1", "note": "(centres undefined)", "% Inhibition": -13, "Z score": 1.24}, {"smiles": "Cc1ccc(NC(=O)Cn2c(N3CCN(c4ccccc4)CC3)nc(C)cc2=O)c(C)c1", "% Inhibition": -26, "Z score": 2.33}, {"smiles": "Cc1ccc(C)c(N2CCN(CCCNC(=O)C3CCN(c4ccc5nnc(C)n5n4)CC3)CC2)c1", "% Inhibition": 15, "Z score": -2.21}, {"smiles": "COc1ccccc1CCNC(=O)c1nc(-c2cnccn2)no1", "% Inhibition": -12, "Z score": 1.73}, {"smiles": "CCCN(C(=O)Nc1cc(C)cc(F)c1)[C@H]1CCCC[C@@H]1O", "% Inhibition": -13, "Z score": 1.18}, {"smiles": "CCc1n[nH]cc1C(=O)N[C@H]1CCOC[C@@H]1OCc1c(C)noc1C", "% Inhibition": -11, "Z score": 1.74}, {"smiles": "CCCn1nc(C(=O)O)c2c1CC[C@H](N(C)CCN(C)C)C2", "% Inhibition": -8, "Z score": 0.75}, {"smiles": "CCc1nc(N2CCC[C@H](COc3ccc(F)cc3)C2)no1", "% Inhibition": -2, "Z score": 0.25}, {"smiles": "O=C1C[C@H](N2CCc3sccc3C2)C(=O)N1CCc1ccccc1", "% Inhibition": -3, "Z score": 0.45}, {"smiles": "Cc1cnc(C2CN(C(=O)Nc3ccccc3)C2)n1CC1CC1", "% Inhibition": -13, "Z score": 1.65}, {"smiles": "C#CC(C)(C)N(C)S(=O)(=O)c1ccc(OC)nc1", "% Inhibition": -6, "Z score": 0.82}, {"smiles": "COc1ccc(COc2ccc(=O)n(-c3ccc(C(=O)N4CCCCCC4)cc3)n2)cc1", "% Inhibition": -22, "Z score": 3.92}, {"smiles": "COc1ccc(F)c(F)c1CN1CC[C@@]2(O)CCCC[C@H]2C1", "% Inhibition": -7, "Z score": 1.05}, {"smiles": "O=C(NCc1ccnc(OC2CCC2)c1)c1cc(F)c(O)c(F)c1", "% Inhibition": -8, "Z score": 0.74}, {"smiles": "O=C(Cn1nccn1)Nc1cc(-c2ccccc2Br)n[nH]1", "% Inhibition": -2, "Z score": 0.27}, {"smiles": "C[C@@H](CC(=O)N1CC(N2CCNC2=O)C1)C(=O)c1ccccc1", "% Inhibition": -2, "Z score": 0.24}, {"smiles": "CC[C@@H](CO)N1CCN(CC2(CCOC)CCCCC2)CC1", "% Inhibition": -1, "Z score": 0.11}, {"smiles": "Cc1ncc(NC(=O)C2CN(C3CCCCC3)C2)cn1", "% Inhibition": -6, "Z score": 0.62}, {"smiles": "O=C(Cc1cccc(F)c1)Nc1ccc2c(c1)OCCCO2", "% Inhibition": -5, "Z score": 0.49}, {"smiles": "Cc1nc(C(C)C)ncc1C(=O)N1CCN(C)[C@@]2(CCNC(=O)CC2)C1", "% Inhibition": -13, "Z score": 2.53}, {"smiles": "COc1ccccc1CN(C)c1cc([C@H]2CCOC2)ncn1", "% Inhibition": -4, "Z score": 0.76}, {"smiles": "Cc1nn(CC(=O)NCCN2CCCC[C@@H]2CO)cc1Cl", "% Inhibition": -3, "Z score": 0.62}, {"smiles": "O=C(CCc1ccc(-c2ccccc2)cc1)NC[C@H]1CCCCO1", "% Inhibition": -8, "Z score": 1.1}, {"smiles": "O=C(CN1CCCCC1)OC1CCCCCCCCCCC1", "% Inhibition": -13, "Z score": 1.71}, {"smiles": "Cc1ccccc1C(=O)NC1(c2cccs2)CCCC1", "% Inhibition": 8, "Z score": -1.1}]}]}
